The values below come from PubChem BioAssay AID360 (National Center for Advancing Translational Sciences (NCATS), 2006).

In all, about 48,000 compounds went through this assay and about 550 (1.1%) were called active. Inconclusive results (about 4%) are left out. Cut-off read from the data, not from the text of the source: active = potency below about 15 µM; inconclusive = mostly about 16 µM to 33 µM; inactive = weaker than that. Some of the results follow.
Potency is the fitted concentration of half-maximal effect.

The experiment addresses Lysosomal acid glucosylceramidase (Homo sapiens) (UniProt P04062). Put plainly: Glucocerebrosidase.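 Note: the screen sought inhibitors.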 The following applies: purified enzyme, resorufin glucoside fluorescence (screen aimed at inhibitors), 20 min. The essentials: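 Normal human glucocerebrosidase (0.2 nM final) was assayed with resorufin β-D-glucopyranoside (30 uM final) in 50mM citric acid/KH2PO4, 10mM sodium taurocholate, 0.01% tween-20, pH 5.9. Compounds were titrated; fluorescence (Ex 548, Em 600) read after 20 min at RT.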
UniProt P04062, sequence (P04062 whole entry, looked up): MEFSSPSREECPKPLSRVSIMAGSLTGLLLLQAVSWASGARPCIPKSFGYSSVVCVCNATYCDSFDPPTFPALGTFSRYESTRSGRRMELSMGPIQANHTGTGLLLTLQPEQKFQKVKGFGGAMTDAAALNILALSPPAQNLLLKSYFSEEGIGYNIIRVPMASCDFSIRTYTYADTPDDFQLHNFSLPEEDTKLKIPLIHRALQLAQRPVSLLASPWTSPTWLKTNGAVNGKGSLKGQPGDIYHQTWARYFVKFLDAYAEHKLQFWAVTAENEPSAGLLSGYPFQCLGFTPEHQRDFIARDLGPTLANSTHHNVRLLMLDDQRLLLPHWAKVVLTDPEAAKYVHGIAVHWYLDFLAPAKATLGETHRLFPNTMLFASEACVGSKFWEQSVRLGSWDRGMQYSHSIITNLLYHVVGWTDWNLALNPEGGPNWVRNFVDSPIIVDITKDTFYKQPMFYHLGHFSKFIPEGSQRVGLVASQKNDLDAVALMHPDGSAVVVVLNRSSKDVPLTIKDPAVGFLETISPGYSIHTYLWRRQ
With `OC(COc1ccc(OCc2ccccc2)cc1)CN1CCCCC1` (configuration not stated), the Potency entry was “inactive”.

On to `CCC(=O)Nc1ccc(-c2nnc(SCC(=O)Nc3nccs3)n2C)cc1`, for which the Potency was inactive: > 76.9 µM.

As for `O=C(Cc1cccs1)Nc1nnc(CCc2ccccc2)s1`, the Potency is inactive: > 76.9 µM.

Take `O=C1CN(S(=O)(=O)c2ccccc2)CC(=O)N1CCc1ccccc1`: the Potency was inactive: > 76.9 µM.

`COc1cc(Cn2cnnn2)ccc1O`: the Potency is inactive: > 76.9 µM.

On to `COCC(=O)Nc1nnc(Cc2ccc(OC)c(OC)c2)s1`, for which the Potency was inactive: > 76.9 µM.

Turning to `Cc1cccc(C)c1NC(=O)CS(=O)CC(=O)NC1CCN(Cc2ccccc2)CC1` (configuration not stated), the Potency was inactive: > 76.9 µM.

With `c1ccc(CSc2nnc(-c3ccco3)c(-c3ccco3)n2)cc1`, the Potency is inactive: > 76.9 µM.

For the molecule `O=c1cc(CSc2ccccn2)[nH]c(=O)[nH]1`, the Potency is inactive: > 76.9 µM.

On to `Cc1cc(C)c2c(=O)[nH]n(C(C)C)c2n1`, for which the Potency is inactive: > 76.9 µM.

As to `Cc1cc(C)c(Cn2c(=O)n(CCCC(=O)NCc3ccco3)c(=O)c3ccccc32)c(C)c1`, the Potency was inactive: > 76.9 µM.

Regarding `CCOC(=O)C1CCN(S(=O)(=O)c2c(C)n[nH]c2C)CC1`, the Potency is inactive: > 76.9 µM.

Take `O=c1[nH]c(=O)n(Cc2ccccc2)c2c1CCC2`: the Potency is inactive: > 76.9 µM.

Regarding `CCCCn1c(NCc2ccccn2)nc2ccccc21`, the Potency was inactive: > 76.9 µM.

On to `O=C(CCCn1c(=S)[nH]c2ccccc2c1=O)NCc1ccco1`, for which the Potency was inactive: > 76.9 µM.

`CCOC(=O)c1cc2sccc2n1CC(=O)N1CCCC1`: the Potency is inactive: > 76.9 µM.

As to `Cn1c(SCCN2CCCCC2)nnc1-c1ccccc1Br`, the Potency was inactive: > 76.9 µM.

As for `CC(=O)Nc1ccc(N2C(=O)CSC2c2ccc(F)cc2)cc1` (configuration not stated), the Potency was inactive: > 76.9 µM.

Take `CCCCN(C)C(=O)c1sc2ncn(CC)c(=O)c2c1C`: the Potency is inactive: > 76.9 µM.

With `c1ccc(-c2csc3ncn4nnnc4c23)cc1`, the Potency is inactive: > 76.9 µM.

Turning to `c1coc(-c2nnc3n2C2(CCCC2)Cc2ccccc2-3)c1`, the Potency is inactive: > 76.9 µM.

In the case of `Cc1c(C(=O)N2CCOCC2)sc2ncnc(N3CCc4ccccc4C3)c12`, the Potency was inactive: > 76.9 µM.

Take `CCOc1ccc(OCc2ccc(C(=O)Nc3cccc(C)n3)o2)cc1`: the Potency was inactive: > 76.9 µM.

Consider `CCSc1nc2n(n1)C(c1cccc(F)c1)C1=C(CCCC1=O)N2` (configuration not stated), for which the Potency was inactive: > 76.9 µM.

Consider `CS(=O)(=O)N1CCN(C(=O)Cc2cccs2)CC1`, for which the Potency was inactive: > 76.9 µM.

Turning to `COc1ccc(Cn2c(=O)[nH]c3cc(C(=O)N4CCN(Cc5ccccc5)CC4)ccc3c2=O)cc1`, the Potency was inactive: > 76.9 µM.

Consider `CC(C)COC(=O)n1ccc(C(=O)N2CCCCC2)n1`, for which the Potency was inactive: > 76.9 µM.

For the molecule `Cc1cc(NC(=O)Cn2c(=O)c3c(ncn3CC(C)C)n(Cc3ccccc3)c2=O)no1`, the Potency is inactive: > 76.9 µM.

For the molecule `COc1cccc(C(=O)Nc2cccc(OC(C)=O)c2)c1`, the Potency is inactive: > 76.9 µM.

With `COc1ccccc1NC(=O)c1ccc(NS(C)(=O)=O)cc1`, the Potency was inactive: > 76.9 µM.

In the case of `COc1ccc(S(=O)(=O)NCCOc2ccccc2)cc1OC`, the Potency was inactive: > 76.9 µM.

Consider `COCc1ccc2oc(C(=O)O)cc2c1`, for which the Potency was inactive: > 76.9 µM.

In the case of `CCCn1c(=O)c2ccccc2n2c(Sc3nnnn3-c3ccccc3)nnc12`, the Potency was inactive: > 76.9 µM.

Take `CCCCOc1ncnc2c1[nH]c1ccc(F)cc12`: the Potency was inactive: > 76.9 µM.

Regarding `Cc1ccc(S(=O)(=O)N2CCC(C(=O)Nc3nnc(-c4ccco4)s3)CC2)cc1`, the Potency was inactive: > 76.9 µM.

For `O=C1CCCC(O)=C1C(C#Cc1ccccc1)C1=C(O)CCCC1=O`, the Potency is inactive: > 76.9 µM.

Consider `Cc1nc(CNS(=O)(=O)c2cc(C)c(C)cc2C)cs1`, for which the Potency was inactive: > 76.9 µM.

In the case of `O=C(NCc1ccc2c(c1)OCO2)c1cc2ncc(Br)cn2n1`, the Potency is inactive: > 76.9 µM.

For `COc1ccccc1NS(=O)(=O)c1ccc(Br)s1`, the Potency is inactive: > 76.9 µM.

`CC(=O)Nc1sc2c(c1C#N)CCCCC2`: the Potency is inactive: > 76.9 µM.

As to `CCOC(=O)c1cc2sccc2n1CCCN1C(=O)c2ccccc2C1=O`, the Potency entry is “inactive”.

For `CCCNC(=O)c1cc(SC)ccc1Cl`, the Potency is inactive: > 76.9 µM.

With `CC1=C(C(=O)Nc2ccc(C)cc2)C(c2ccc(C)o2)C2=C(CC(C)(C)CC2=O)N1` (configuration not stated), the Potency was inactive: > 76.9 µM.

Take `O=C(CCSc1ccccc1)NCC1CCCO1` (configuration not stated): the Potency is inactive: > 76.9 µM.

Regarding `CC(C)Oc1snc(Cl)c1C(N)=O`, the Potency was inactive: > 76.9 µM.

Consider `O=C(c1ccc(Br)o1)N1CCN(Cc2ccc3c(c2)OCO3)CC1`, for which the Potency was inactive: > 76.9 µM.

Consider `O=C(Cn1nnc(-c2ccccc2F)n1)Nc1ccc(S(=O)(=O)NC2CCCC2)cc1`, for which the Potency is active: 6.87 µM.

With `Cn1cnc2c1c(=O)n(Cc1cccc(Br)c1)c(=O)n2C`, the Potency is inactive: > 76.9 µM.

With `Cc1cc(C)n(CCO)c(=O)n1`, the Potency is inactive: > 76.9 µM.

On to `Cc1ccc2c(c1)nnn2C1CCN(C(=O)c2cccs2)CC1`, for which the Potency was inactive: > 76.9 µM.

For the molecule `Cn1nnnc1SCC(=O)Nc1cc(C(C)(C)C)nn1-c1ccccc1`, the Potency was inactive: > 76.9 µM.

Regarding `Cn1c(-c2ccc(C(=O)c3ccccc3)s2)nc2ccccc21`, the Potency is inactive: > 76.9 µM.

Turning to `Cc1ccc(-c2nn(CC(=O)NCCN3CCOCC3)c(=O)c3ccccc23)cc1`, the Potency result is “inactive”.

`CCOC(=O)CC(=O)c1cc(OC)c(OC)c(OC)c1`: the Potency is inactive: > 76.9 µM.

As to `CCCC1CC(c2csc(N)n2)CCO1` (configuration not stated), the Potency is inactive: > 76.9 µM.

With `COCCCn1c(SCC(=O)NCc2ccco2)nc2sc3c(c2c1=O)CCC3`, the Potency is inactive: > 76.9 µM.

Take `Oc1ccc(Nc2nc(-c3ccc(O)cc3)cs2)cc1`: the Potency result is “inactive”.

With `COc1cccc(C2=NOC(C(=O)NCc3ccco3)C2)c1` (configuration not stated), the Potency is inactive: > 76.9 µM.

Take `CCN(CC)P1(=O)OC(c2cc(OC)c(OC)c(OC)c2)=Nc2c1c(C)nn2-c1ccccc1` (configuration not stated): the Potency is inactive: > 76.9 µM.

With `C=CCc1cc(C(=O)N2CCCCC2)ccc1O`, the Potency was inactive: > 76.9 µM.

On to `N=c1sc2ccccc2n1-c1ccccc1`, for which the Potency was inactive: > 76.9 µM.

For the molecule `Nc1ccn(-c2ccccc2)c(=O)c1`, the Potency is inactive: > 76.9 µM.
